Laboratory results from ChEMBL document CHEMBL4888484, “Replenishing the malaria drug discovery pipeline: Screening and hit evaluation of the MMV Hit Generation Library 1 (HGL1) against asexual blood stage Plasmodium falciparum ,using a nano luciferase reporter read-out” (2022).
Out of some 150,000 compounds screened, about 540 (0.36%) showed an effect of 50% or more. Some of the results follow.

test system: Plasmodium falciparum; experiment: Primary screen in NF54 nanoGlo assay, in single point, at 2uM, 72h; a lower Z score goes with more inhibition; format: functional, Erythrocyte; settings: timepoint 72 hour

Compound	% Inhibition [%]	Z score
O=C(c1ccccc1OC(F)F)N1CCN(Cc2ccc[nH]2)CC1	-2	0.22
CN1CCN(Cc2ccc3c(c2)CCO3)C[C@@H]1CCO	-2	0.22
O=C(NCC1(C2CC2)CC1)N1CCOCC1CC(O)c1ccco1 (stereo not drawn)	-8	1.13
CCOc1ncccc1C(=O)N(C1CCCC1)[C@H]1CCS(=O)(=O)C1	2	-0.19
CC(C)[C@H]1C(=O)NCCN1S(=O)(=O)c1ccnn1C	-8	1.55
Cc1nccn1-c1cc(CNC(=O)Cc2cc(Cl)c3c(c2)OCCCO3)ccn1	-4	0.58
CCN(CC)C(=O)C1=CC(c2ccco2)=NS(=O)(=O)N1C	-14	2.61
O=C1c2cc(Cl)c(Cl)cc2C(=O)N1Cc1nc2ccccc2s1	-5	0.87
C=CCCC(=O)NCCn1cc(C(=O)Nc2cccc(OC)c2)nn1	-9	1.1
Cc1nn(C)c(C)c1CCN(C)C(=O)Nc1ccc2c(c1)OCO2	-15	1.46
CCC1CC(C)CN1C(=O)C(C)Cc1c(C)n[nH]c1C (stereo not drawn)	-5	0.65
CC(NC1CCN(C)C1=O)c1nc2ccccc2n1C(C)C (stereo not drawn)	2	-0.27
CC(C)(C)CN1CCCC(N2CC3CCCC3C2C(N)=O)C1=O (stereo not drawn)	-11	1.42
CN(C)CCNC(=O)[C@H]1CCCN(C(=O)c2nnc(C(=O)Nc3ccccc3)s2)C1	-24	2.11
CC(C)[C@H](N)C(=O)NCc1nc(Cn2cnc3ccccc32)no1	3	-0.32
CC(C)(O)CN1CCN(C(=O)c2ccccc2-n2cnnn2)CC1	5	-0.69
Cc1sc(-c2ccno2)cc1S(=O)(=O)NCc1cccs1	-3	0.28
COc1ccc(S(=O)(=O)C(F)(F)C(F)(F)C(F)(F)F)cc1N	-46	5.37
Cn1cnnc1Cn1c(=O)c2ccccc2c2ccccc21	-7	1.15
COc1ccc(C(=O)N2CC(=O)N3CCc4ccccc4[C@@H]3C2)cc1OC	-11	1.54
Cc1cccc(CN(Cc2ccccn2)C(=O)Cn2c(C)cc(O)cc2=O)c1	35	-0.56
CC[C@H](O)CN(CCN1CCOCC1)c1ccccc1	-1	0.11
COc1ccc(NC(=O)CC(=O)N(C)C[C@H](O)CO)c(OC)c1	1	-0.15
CC(C)NC(=O)NCC(C)(C)c1ccsc1	-12	2.23
